# Data published in the supplement of paper PMC12632987.
# The full ranking holds about 4,500 sequences; the median of “median log2 fold change of GCK-ALFA target abundance (FLAG IP / Myc IP barcode read proportion)” is about 0.078, and the lowest 2% start at about -0.6. Some of the results follow.
# B1: GBRAP_16_4994 (protein)
# chain: EELKNKIEGILEFVKDVADAFEDIDPEAAKLAKEAAEKLERAAKLLEEGGEKEEVKKELEEALKIVKELAKRYEDKDKEAAAIAKLIAKRIKEAIKLAEE
# B2: GBRAP_160_4226 (protein)
# chain: METVEKIVKVFRDTFLEALELIEGESAEERAVILDVAVGEVILEVSEIEEATDEMEEVVDKKAEALAAALLAAADASAAERRALVDKAAAELRKELEKIE
# B3: GBRAP_11_2921 (protein)
# chain: KKEKLKEIAELAEEAAKLVDRLIAEGVDNEELLAELEKKIEELKELVEKYGDEADKKDVEIIEELWKEALADPENREEYLKQLRAALRVLAGQYLLKLEE
# B4: GBRAP_160_4725 (protein)
# chain: EEEIKEFVEEFREEFLETLELTKDESKENAKALFRGTAGEILQDAFENPFLTDEQEDVVAEILDELVEELEKNFDASLEEKKEIVEEKMEELLEKLLELS
# B5: GBRAP_160_4350 (protein)
# chain: MEAVEKLIEEIRRATEEVIEELDEVSVEEAAVLAAGEFGAVAMEAALDERYSDEMVDAIIEGRDEAVRALRELRDASVEERKRRLREITERTIEELKRIA
# B6: GBRAP_78_6671 (protein)
# chain: EIEELIDNALEHLSKAARIVRKLPADKQLEILGLLVDAASDLLEAEEEGFDLEKLKEALKHLEKALKLLEKLDTEEAKKAAEEVKKAIEDVKKAIELLEK
# B7: GBRAP_11_2711 (protein)
# chain: KKEKLKELAKKAEELAEEIKKLIKEGPTKEEIEKLLKKAEELLKEAKKAGLPQSVLDLIEIAAEELKEAIENPENVKEHLERALAAFRVLAGELLLLAEE
# B8: GBRAP_26_5460 (protein)
# chain: MEEAERAAEAEVRAIAARLPDPRVAAAVVAEFSTELLEAEEAIENGEDPKEAFRKAREEFLAEARELMEEAGLSPEEIAAFEAELSAVFDKLEAEVLAEL
# B9: GBRAP_160_4147 (protein)
# chain: SAELKALIEEIREITEEAIKLMEGETPEEAKVIARVALGEIVMLVFSNEAVSEETEEEVGEVADEAEAHLRANPDLTVEEIKAILREAGEEVIEIIEKEV
# B10: GBRAP_43_5779 (protein)
# chain: SEELVEGAFEAALLAAETPEIDDETKVKIIKLAFELAADEGIFNEEKLEEIIEAAAKSLSAESLKEIKEHLLKIAKEHPELKEKLEKAAKKVEEAIKKKE
# B11: GBRAP_53_6414 (protein)
# chain: MEAEIAKLKAEALAKAEKAAAADEATLAKLVEEIGALLAALKAAGAPEEELTALAREIARKLKEAGAPDSALVALAQQLAALGLEDATAEVAEEAVEELE
# B12: GBRAP_160_4031 (protein)
# chain: KEKLEKLAKYSKEVFEEAKELIEGQSAEQVANLFDVAMGQIIMEAVELGIDNEELEDFIDKLGDEGVATILANPDLSLEERKALIEEAEKKVLEKIEEAK
# B13: GBRAP_80_6847 (protein)
# chain: DAARLAAARARLAALLPEVAADVDRLVALAQELGVPDADIADLLAALAELAELDPERAAALIRELLADMEELKAEGDAANARAVVQGYAGEALMLAEELE
# B14: GBRAP_52_6247 (protein)
# chain: MSARLRALARELLELVLAGDEEGARALAREIARTLNEEELEAFADEFARLAEEMPVEDLEKVWRAAEILEEVLEEEGKSEVLVDYLRARTAAAIVKRLQA
# B15: GBRAP_160_4826 (protein)
# chain: SSSLEKLIKLVDELAEEAKELIKGETHEQRAAIIAVEFGQFILELSSEEKASDELEDEVDEIADDLVETVLENEDLTYEEVTELIEEAREEIKEILKKHL
# B16: GBRAP_125_2979 (protein)
# chain: ASEEELEDLRLVARALGLDEEDAEEAVELARAHSIRGTLYAIAAALGWEELADAVARLTEEQARAVLRETAAWIRAHPDATPEEVAARLLAVARAALAAA
# B17: GBRAP_125_3113 (protein)
# chain: SMEELLENLRIVMKALGFDEDDIEEAVKLAKEFGLKQTLIAIFLAEGWEEVAELVDKLTDEQVKEALKELAAYIKAHPDLTPEEVKEKALEIFKELLAKQ
# B18: GBRAP_160_4281 (protein)
# chain: GEELKKLAEELKKMKEEILSLVDKVSAEEIRTFAVTELGSILMEAIDGGLLSDEQEDELAKIRDELEKELKKLENASPEEIKEAIEKHFNKAIELLEKAA
# B19: GBRAP_11_2646 (protein)
# chain: MKETLEKAAELAKKAAEAVKKLIEEGVDNEELIKEAEELLKKLKELTEKHLSEADKTEVEVAEELFKEFLADKENKLEYAEQLLAALRVLHGNYLLDRDE
# Target: GABARAP, O95166
# Sequence (O95166 whole entry, the tested form may be a part): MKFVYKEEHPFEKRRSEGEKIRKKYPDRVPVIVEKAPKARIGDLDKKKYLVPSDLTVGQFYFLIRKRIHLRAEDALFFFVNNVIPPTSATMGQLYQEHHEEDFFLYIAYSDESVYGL
# Assay: median log2 fold change of GCK-ALFA target abundance (FLAG IP / Myc IP barcode read proportion) (log2 ratio); each designed protein is fused to an ALFA-tag nanobody in HEK293 cells to bring the named protein to FLAG-tagged glucokinase (GCK); Myc marks an untargeted standard; higher = target protein stabilised (more abundant)
# Conditions: target protein: 3xFLAG-MCP-GCK-ALFA reporter; HEK293 landing pad (RPLP)
# In short: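 Sequencing of reverse-transcribed, amplified circular RNA barcodes from anti-FLAG and anti-Myc immunoprecipitates provided the readout for an ALFA-nanobody-fused binder library recombined into HEK293 landing-pad cells. Those cells were induced with 2 μg mL^−1 doxycycline, transfected with a plasmid expressing a FLAG-tagged target and a Myc-tagged standard, and lysed after 48 h. Target abundance is the per-binder median log2 ratio of FLAG to Myc barcode read proportions. Only barcodes at a proportion of ≥10^−7 in both replicates and binders with ≥3 barcodes per replicate were kept, with a 10^−6 pseudocount added before the two replicates were pooled.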
row,Binder,median log2 fold change
1,B1,-0.107
2,B2,-0.651
3,B3,-0.0079
4,B4,0.0697
5,B5,0.0909
6,B6,-0.446
7,B7,0.0604
8,B8,0.197
9,B9,-0.617
10,B10,-0.0621
11,B11,0.386
12,B12,0.0473
13,B13,0.0197
14,B14,-0.122
15,B15,-0.33
16,B16,-0.341
17,B17,-0.272
18,B18,0.321
19,B19,0.381
